One may read the % Inhibition as the relative decrease from the control value, in per cent.

The campaign covered roughly 150,000 compounds. About 540 (0.36%) showed an effect of 50% or more. The list shows a part of the results.

The assay relates to Plasmodium falciparum. Description: Primary screen in NF54 nanoGlo assay, in single point, at 2uM, 72h; a lower Z score goes with more inhibition. In kind it is functional, Erythrocyte. To be noted: timepoint 72 hour.
`CCOc1ccccc1C(=O)N1CCOC[C@@H]1CC(C)C`: the “% Inhibition” value is listed as -4% and the Z score was determined as 0.53.

Consider `Cc1cccc(Cl)c1C(=O)NC(C1CCNCC1)[C@H]1C[C@H](O)C1` (some centres undefined), for which the “% Inhibition” value was -9% and the Z score is listed as 1.88.

As to `CCCC(=O)N1c2ncnn2C(c2ccccc2OC)CC1c1ccccc1` (centres undefined), the “% Inhibition” value is listed as -6% and the Z score was 0.81.

With `O=c1c2ccccc2nc(-c2cccc3ccccc23)n1Cc1cccc(Cl)c1`, the “% Inhibition” value was -8% and the Z score was 0.9.

For the compound `CC(=O)c1c(C)nn(CC(=O)N2CCN(CCOc3ccc(Cl)cc3C)CC2)c1C`, the “% Inhibition” value is -1% and the Z score was determined as 0.23.

With `CCOC1(c2ccc(OCc3nc(-c4ccccc4)oc3C)cc2)CC(C(=O)O)C1` (centres undefined), the “% Inhibition” value was -16% and the Z score turned out to be 1.66.

Regarding `C[C@@H](CNS(=O)(=O)c1cnn(C2CCOCC2)c1)c1nccs1`, the “% Inhibition” value is reported as -8% and the Z score was determined as 0.89.

As for `CC1(C)CN(C(=O)NCc2ccccc2)C[C@@H]2CN(C(=O)C3CCCC3)CCN21`, the “% Inhibition” value came out at 2% and the Z score is on record as -0.24.

On to `CCOC1CC(NC(=O)c2ccnn2CC(F)F)C12CCOCC2` (centres undefined), for which the “% Inhibition” value is given as -2% and the Z score is listed as 0.21.

Regarding `C[C@H](NCC(=O)Nc1ccnn1C1CCCC1)c1cccs1`, the “% Inhibition” value was -2% and the Z score came to 0.22.

Consider `CCC(C(=O)OC)N(C(=O)C1CCOC1)c1ccccc1` (centres undefined), for which the “% Inhibition” value is reported as -3% and the Z score was 0.32.

As to `CCN(CC)C(=O)c1ccc2c(c1)N(CC(=O)N1CCCCCC1)C(=O)CO2`, the “% Inhibition” value stood at 0% and the Z score is listed as 0.02.

Take `O=C(Nc1cccc(F)c1)N(CCO)CCOCC(F)(F)F`: the “% Inhibition” value is listed as -6% and the Z score was 0.75.

In the case of `Cc1ccc(C)c(OC[C@@H](O)CN2CCC(Cc3nccn3C)CC2)c1C`, the “% Inhibition” value is 11% and the Z score was -1.07.

As to `CC[C@@H]1Oc2ccc(NC(=O)COc3ccccc3)cc2CN(Cc2ccc(F)cc2)C1=O`, the “% Inhibition” value stood at 3% and the Z score is -0.42.

`O=C(NCC[C@H]1CCCO1)c1cc2c(s1)CCC2`: the “% Inhibition” value was -8% and the Z score amounted to 1.19.

In the case of `COc1ccccc1NC(=O)c1nnn2c1c(=O)[nH]c1cc(F)ccc12`, the “% Inhibition” value came out at 5% and the Z score is -1.07.

In the case of `CC(C)c1nsc(N2CCN(CC(=O)N3CCCC[C@@H]3C)CC2)n1`, the “% Inhibition” value was -11% and the Z score turned out to be 0.96.

In the case of `Cc1cnn(CC(=O)N2CCC3(CC2)CC(=O)N(Cc2ccc(Cl)cc2)C3)c1`, the “% Inhibition” value is -8% and the Z score turned out to be 1.01.

`Cc1nn(-c2nc(C)c(C)c(=O)[nH]2)c(C)c1CCC(=O)NCc1cccnc1`: the “% Inhibition” value is -11% and the Z score is reported as 1.43.

On to `C[C@@H](Cn1cccn1)Nc1ccc2cc[nH]c2n1`, for which the “% Inhibition” value is 6% and the Z score is -1.04.

For `N#CC1(c2cccc3ccccc23)CCCCC1`, the “% Inhibition” value turned out to be 0% and the Z score is -0.03.

On to `Cc1cc(C(=O)N2CCC[C@H](N)C2)c(C)n1C(C)C`, for which the “% Inhibition” value is on record as -9% and the Z score came out at 1.44.

With `COc1ccc(NC(=O)CCc2c(-c3ccc(Cl)cc3)nc3ccc(-c4cc5ccccc5s4)cn23)cc1`, the “% Inhibition” value is listed as 0% and the Z score is listed as -0.04.

In the case of `COc1ccc(CCNc2cc(C(C)(C)C)nc3c(-c4ccc(F)cc4)c(C)nn23)cc1OC`, the “% Inhibition” value turned out to be 11% and the Z score is recorded as -1.22.

For `COc1ccccc1N1CCN(C(=O)CNC(=O)c2cn(-c3ccccc3OC)c(=O)c3ccccc23)CC1`, the “% Inhibition” value is on record as 1% and the Z score is -0.09.

Take `O=C(NCc1ccc(N2CCCC2=O)cc1)c1ccc2c(c1)OCO2`: the “% Inhibition” value is given as -8% and the Z score is 1.21.

As to `O=C1CN(c2ncnc3c2ncn3CC(CO)C2CCOC2)CN1CC(F)(F)F` (centres undefined), the “% Inhibition” value is -2% and the Z score is listed as 0.23.

Take `Cc1ccc(-n2ncc3[nH]c(=O)ncc32)cc1`: the “% Inhibition” value came to 7% and the Z score was -0.92.

Take `CCc1ccc(NC(=O)c2c(C)oc3ncn(Cc4ccccc4)c(=O)c23)cc1`: the “% Inhibition” value was -7% and the Z score is 0.88.

`CN1CC[C@@]2(CCC1=O)CN(c1nnc(-c3ccccc3)s1)CCN2C`: the “% Inhibition” value is given as -7% and the Z score was found to be 0.95.

Take `CC(Cc1ccc(F)cc1)C(=O)N1CCC[C@@H]1C(=O)O` (some centres undefined): the “% Inhibition” value was found to be 4% and the Z score is listed as -0.55.

Turning to `CC(C)Oc1ccc(CN2CC(Cc3nc(-c4ccncc4)no3)C2)cc1`, the “% Inhibition” value came to 4% and the Z score is recorded as -0.58.

For `Cc1nc(CC(=O)NCCc2noc([C@@H]3CCCO3)n2)c(C)s1`, the “% Inhibition” value amounted to 5% and the Z score was -0.86.

Turning to `C=CCN1CC(=O)N(CC2CCCN(C)C2c2cccc(Cl)c2)C1=O` (centres undefined), the “% Inhibition” value is reported as -6% and the Z score was 0.84.

On to `O=c1[nH]nc(-c2ccccc2)c2cn(-c3ccccc3Cl)nc12`, for which the “% Inhibition” value is -34% and the Z score was 4.02.

`O=C(NCCN1N=C(c2ccccc2)CCC1=O)c1cc2n(n1)CCNC2`: the “% Inhibition” value was 0% and the Z score came to 0.03.

Regarding `COc1cccc2c1CN(C(=O)[C@@H](OC)C1CCCCC1)C2`, the “% Inhibition” value turned out to be 2% and the Z score was -0.26.

For `Cc1ccc(NC(=O)C2CCN(S(=O)(=O)c3ccc4c(c3)sc(=O)n4C)CC2)c(C)c1`, the “% Inhibition” value is listed as -12% and the Z score was found to be 1.48.

For `Cc1cccc(Oc2nc3ccccc3n3c(=O)n(CC(=O)NCc4ccc(F)cc4)nc23)c1C`, the “% Inhibition” value is -9% and the Z score is on record as 1.29.

Take `CCOCC1CCN(C(=O)c2ccc(Oc3ccncc3)cc2)CC1`: the “% Inhibition” value is recorded as -1% and the Z score was found to be 0.12.

With `N#Cc1ccc(C(=O)N[C@@H]2[C@H]3CCO[C@H]3[C@H]2Cc2ccccc2)cn1`, the “% Inhibition” value is -11% and the Z score is reported as 1.14.

Values taken from ChEMBL document CHEMBL4888484, “Replenishing the malaria drug discovery pipeline: Screening and hit evaluation of the MMV Hit Generation Library 1 (HGL1) against asexual blood stage Plasmodium falciparum ,using a nano luciferase reporter read-out” (2022).
